PubChem BioAssay AID1346428 (National Center for Advancing Translational Sciences (NCATS), 2018)
Out of some 48,000 compounds screened, about 1,200 (2.5%) were called active. About 2% were inconclusive and are not listed.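 How the source made its calls: active means activation of at least 60% and not above a set upper limit (about 1 call in 100 departs from these limits); inconclusive means activation of 40% to 60%, or above that upper limit; inactive means activation under 40%.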 This is one part of the list.

The compounds below were run against Probable G-protein coupled receptor 32 (Homo sapiens) (UniProt O75388) (assay: qHTS for Agonists of Human Resolvin D1 Receptor DRV1). Details: CHO-K1 GPR32 beta-arrestin PathHunter luminescence, 90 min; at 76.9 µM; active compounds read high; zero percent set by DMSO-only wells.
Sequence of UniProt O75388 (O75388 whole entry, looked up): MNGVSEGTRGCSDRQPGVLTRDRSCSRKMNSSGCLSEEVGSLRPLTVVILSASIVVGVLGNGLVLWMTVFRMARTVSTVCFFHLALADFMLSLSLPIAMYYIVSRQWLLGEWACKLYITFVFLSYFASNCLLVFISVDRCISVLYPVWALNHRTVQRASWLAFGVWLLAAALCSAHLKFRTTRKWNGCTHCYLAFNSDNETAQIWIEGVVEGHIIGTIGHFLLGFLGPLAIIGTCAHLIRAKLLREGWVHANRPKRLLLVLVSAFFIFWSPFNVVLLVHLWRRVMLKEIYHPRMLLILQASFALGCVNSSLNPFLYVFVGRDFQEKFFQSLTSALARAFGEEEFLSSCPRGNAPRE
How it was run: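 Using DMSO wells as EC0, agonist-induced signal was taken as chemiluminescence from beta-Gal reconstituted upon beta-arrestin recruitment to GPR32 in CHO-K1 cells after 90 min compound treatment.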

Row | SMILES | activation
1 | Cc1c(C(=O)NCCc2ccc(S(N)(=O)=O)cc2)sc2nc3n(c(=O)c12)CCCC3 | inactive: 20.1%
2 | Cc1cccn2c(=O)c3cc(C(=O)N(Cc4ccccc4)C(C)C)sc3nc12 | inactive: 32.7%
3 | Cc1cccc(C(=O)Nc2nc(-c3nnn(-c4cc(F)ccc4F)c3C)ns2)c1 | inactive: -0.463%
4 | CCCCN(C)CCNC(=O)c1ccc2c(c1)NC(=O)CN2 | inactive: -5.01%
5 | COc1ccc(-c2cc(C(F)(F)F)n3nc(C(=O)NCC45CC6CC(CC(C6)C4)C5)cc3n2)cc1OC | inactive: -9.57%
6 | Cc1cccc(Cn2c(C)c(CNC3CCCCC3)c(C(=O)O)c2C)c1 | inactive: 33%
7 | Cc1cc(Cl)ccc1NC(=O)C1CCN(c2nnc(-n3c(C)ccc3C)s2)CC1 | inactive: -20.5%
8 | CCOC(=O)c1ccccc1NC(=O)N1CCOc2ccc(Cl)cc21 | inactive: -37.8%
9 | CC1CCN(S(=O)(=O)c2ccc3c(c2)N(CC(=O)O)C(=O)CO3)CC1 | inactive: 8.15%
10 | Cc1ccc(NC(=O)C(=O)NCC(c2cccnc2)N2CCN(Cc3ccccc3)CC2)cc1 (stereo not drawn) | inactive: 0.296%
11 | Cc1ccc2ccc3cc(C(=O)N4CCN(c5ccccc5)CC4)nc3c2[nH]1 | inactive: 46.3%
12 | CC(=O)Nc1ccc(-c2nnc(SCC(=O)c3ccc([N+](=O)[O-])cc3)o2)cc1 | active: 64%
13 | COc1ccc(-c2ccc3cc(C(=O)O)ccc3c2)cc1C12CC3CC(CC(C3)C1)C2 | inactive: -12.8%
14 | CCc1ccccc1NC(=O)CSc1nc2c(oc3ccccc32)c(=O)n1-c1ccccc1F | inactive: -15.9%
15 | Cc1cccc(NC(=O)Cn2c(C(F)(F)F)nc3ccccc32)c1C | inactive: -6.91%
16 | CCc1ccccc1NC(=O)c1nc(-c2ccncc2)no1 | inactive: -2.46%
17 | O=C(NCCc1csc2nc(-c3ccc(F)cc3)nn12)c1ccco1 | inactive: 3.65%
18 | COc1ccc(C)cc1NC(=O)Cn1cc(S(=O)(=O)Cc2ccccc2Cl)c2ccccc21 | inactive: -9%
19 | CCOc1cc2c(cc1OCC)C(c1c(F)cccc1Cl)CC(=O)N2 (stereo not drawn) | inactive: 49.2%
20 | CCOc1ccccc1CNS(=O)(=O)c1csc(C(N)=O)c1 | inactive: -7.22%
21 | COC(=O)c1cc(NC(=O)CCc2c(C)nc3cc(-c4ccccc4)nn3c2C)cc(C(=O)OC)c1 | inactive: -1.21%

Row | SMILES | activation
22 | CC1CCN(S(=O)(=O)c2cc(C(=O)Nc3ccc(Br)cc3F)n(C)c2)CC1 | inactive: -5.25%
23 | Cc1ccc(-c2cc(C(=O)N3CCN(c4ccccc4)CC3)c3ccccc3n2)cc1C | inactive: -26.7%
24 | COc1cc(C2C(C(=O)Nc3ccccc3)=C(C)Nc3nc(SCc4ccccc4F)nn32)cc(OC)c1OC (stereo not drawn) | inactive: 17.6%
25 | Cc1sc2c(c1C)c(=O)n(-c1ccc(Cl)cc1)c(=O)n2Cc1c(F)cccc1Cl | inactive: -3.13%
26 | CCOC(=O)c1c(S(=O)(=O)N2CCC(C(=O)N3CCN(c4cc(C)ccc4C)CC3)CC2)c(C)n(C)c1C | inactive: -32.8%
27 | O=C(NC1CCCCC1)c1ccc(CSc2nc3cccnc3n2Cc2ccccc2F)cc1 | inactive: -0.451%
28 | Cc1ccc(Cn2c(CCCNC(=O)C3CCCCC3)nc3ccccc32)cc1 | inactive: 11%
29 | CC(C)CCNC(=O)c1ccc2c(c1)N(Cc1ccccc1F)C(=O)c1ccccc1S2=O (stereo not drawn) | inactive: -29.7%
30 | COc1ccccc1OCC(=O)NCC1(N(C)C)CCCCC1 | inactive: -6.19%
31 | Cc1ccc(N2CC(NC(=O)C(=O)c3c[nH]c4ccccc34)CC2=O)cc1 (stereo not drawn) | inactive: -3.45%
32 | CCN1CCCC1CNC(=O)c1cc(S(N)(=O)=O)ccc1OC (stereo not drawn) | inactive: -8.58%
33 | Oc1ccc(NCc2ccc(OCc3ccccc3Cl)cc2)cc1 | inactive: -57%
34 | O=C(CSc1nc(=O)n(Cc2cccnc2)c2c1CCC2)Nc1ccc(F)cc1F | inactive: 19%
35 | Cc1ccc(Cc2nc3ccccc3nc2SCC(=O)N2CCCCC2C)cc1 (stereo not drawn) | inactive: -15.9%
36 | COC(=O)c1cccc(NC(=O)Nc2cc(C(=O)NCc3cccc(F)c3)ccc2N2CCCC2)c1 | inactive: -23.2%
37 | N#C/C(=C\c1c(Oc2ccc(Br)cc2)nc2ccccn2c1=O)c1nc2ccccc2s1 | inactive: 29.3%
38 | CCCCN1CCc2nc(N3CCN(C)CC3)ncc2C1 | inactive: -16.7%
39 | COc1ccc(N2CCN(C(=O)CS(=O)(=O)c3cccc4nsnc34)CC2)cc1 | inactive: 30.7%
40 | CC(=O)N1CCc2cc(Br)cc(S(=O)(=O)N3CCN(c4cccc(C)c4)C(C)C3)c21 (stereo not drawn) | inactive: 9.36%
41 | COc1cccc(N2CCN(S(=O)(=O)c3ccc4c(c3)CCCN4C(C)=O)CC2)c1 | inactive: -5.15%
42 | CCOC(=O)c1c(NC(=O)c2cc(=O)c3ccc(C)cc3o2)sc(C)c1C | inactive: 5.04%

Row | SMILES | activation
43 | COc1ccc(Cl)cc1NC(=O)c1cc(C)nn1-c1ccccc1 | inactive: -22.8%
44 | COc1ccccc1N1CCN(C(=O)c2cn(C)c3ccc(S(=O)(=O)N4CCOCC4)cc3c2=O)CC1 | inactive: -4.92%
45 | CN(C)c1ccc(CNC(=O)CCCn2ccc3cc(S(=O)(=O)N4CCCC4)ccc32)cc1 | inactive: -19.9%
46 | COc1ccc(CCN2CCC(CNC(=O)c3cnn(-c4ccccc4)c3C3CCN(C(=O)OC(C)(C)C)CC3)CC2)cc1 | inactive: -11.1%
47 | Cc1nn(C(C)C(=O)NC2CCC(C)CC2)c(=O)c2cc3sccc3n12 (stereo not drawn) | inactive: -13.9%
48 | Cc1cc(=O)[nH]c2nnc(SCc3ccc(Cl)cc3)n12 | inactive: 21.4%
49 | COC(=O)C1=C(c2ccccc2)c2ccccc2S(=O)(=O)N1CC(=O)Nc1ccc(OC)cc1OC | inactive: -31.6%
50 | CCOc1ccc(NC(=O)CN2C(C(=O)OC)=C(c3ccccc3)c3cc(Cl)ccc3S2(=O)=O)cc1 | inactive: -17.7%
51 | COc1ccccc1-c1cc(NC(=O)COc2ccc(C)c(C)c2)n(-c2ccccc2)n1 | inactive: 8.79%
52 | COc1ccccc1NC(=O)C1CCN(S(=O)(=O)c2cn(C)cn2)CC1 | inactive: -20.3%
53 | Cc1ccc(CNC(=O)CN2CCN(Cc3ccc(F)cc3)C2=O)cc1 | inactive: 3.85%
54 | COc1ccc(NC(=O)c2c(NCc3cccc(F)c3)sc3c2CCCC3)c(OC)c1 | inactive: -14.3%
55 | O=C(NCc1ccccc1)C1CCN(S(=O)(=O)c2ccc3[nH]c(=O)ccc3c2)CC1 | inactive: 3.29%
56 | Cc1cccc(N(C)S(=O)(=O)c2c(C(=O)N3CCCCCC3)c(C)n(C)c2C)c1 | inactive: -16%
57 | O=C(c1ccc(OCCCc2cnc[nH]2)cc1)C1CC1 | inactive: 3%
58 | CCOc1ccc(CCNC(=O)c2cnc3sc(N4CCCCCC4)nn3c2=O)cc1 | inactive: -3.47%
59 | COc1ccc(-c2cc(C(F)(F)F)nc(SCC(=O)NCc3ccc(Cl)cc3)n2)cc1 | inactive: -14.6%
60 | CC(C)OCc1cc(CN2CCN(c3ccccc3)CC2)c(O)c2ncccc12 | inactive: -7.62%
61 | Cc1cccc2c1-c1sc(C(=O)N3CCN(c4cccc(Cl)c4)CC3)cc1CO2 | inactive: -20.3%
62 | COc1ccc(OC)c(NC(=O)CN2CCCN(Cc3cc(C)ccc3C)S2(=O)=O)c1 | inactive: -16.7%
63 | O=C(CSc1nccn1Cc1ccc(Cl)cc1)NCc1ccccc1 | inactive: -2.72%

Row | SMILES | activation
64 | COc1ccccc1CNC(=O)C(CC(C)C)N1Cc2ccccc2C1=O (stereo not drawn) | inactive: -7.46%
65 | O=C(CN1C(=O)C2(SCC(=O)N2c2ccc(F)c(F)c2)c2ccccc21)Nc1ccccc1F (stereo not drawn) | inactive: -14.3%
66 | CC1=C(C(=O)Nc2ccc(F)cc2F)C2(CCCCCC2)OC1=O | inactive: -21.6%
67 | Cc1cccc(CC(=O)NCCc2csc(-c3ccc(C(F)(F)F)cc3)n2)c1 | inactive: -10.1%
68 | Cc1ccc(C)c(C(=O)COC(=O)CCCC(=O)Nc2cc(C(F)(F)F)ccc2Cl)c1 | inactive: -2.68%
69 | Cc1cc(C)c(NC(=O)CSc2nc(-c3ccc(F)cc3)nc3c2Cc2c(CO)cnc(C)c2O3)c(C)c1 | inactive: 0.855%
70 | CCCCCCCCCCCC(=O)[O][Sn]([CH2]CCC)([CH2]CCC)[O]C(=O)CCCCCCCCCCC | inactive: 28.9%
71 | COc1ccc(S(=O)(=O)N(CC(=O)Nc2cccc(C)c2)c2ccc(C)cc2)cc1OC | inactive: -2.74%
72 | CCOc1ccc(CCNC(=O)c2[nH]c3cc(OC)ccc3c2Sc2ccccc2)cc1OCC | inactive: -26.9%
73 | CC(C)CN(CCCNC(=O)CN1N=C(c2ccccc2)CCC1=O)CC(C)C | inactive: -15.1%
74 | O=C(Cn1ncc2c3ccccc3n(Cc3ccccc3F)c2c1=O)N1CCCCC1 | inactive: -9.45%
75 | CCCCSCCCNC(=O)C1CCN(Cc2nc(-c3cccc(Br)c3)oc2C)CC1 | inactive: 26%
76 | COc1ccccc1CNC(=O)c1ccc(N2CCCC2)c(NC(=O)NCc2ccc(F)cc2)c1 | inactive: -19.1%
77 | CCOC(=O)C1=C(CN(CC)Cc2ccccc2)NC(=O)NC1c1ccc(OC(C)C)cc1 (stereo not drawn) | inactive: -13.3%
78 | COc1ccc(N2CCN(c3ccc(-c4nc(-c5cccc(C)c5)no4)cc3[N+](=O)[O-])CC2)cc1 | inactive: 10.1%
79 | O=C(NCCC1=CCCCC1)c1ccc2c(c1)N(Cc1cccc(Cl)c1)C(=O)c1ccccc1S2(=O)=O | inactive: -22.9%
80 | CC(=O)c1cc2c(cc1NC(=O)c1cnn(-c3ccc(C)cc3)c1-n1cccc1)OCO2 | inactive: -6.05%
81 | CCOc1ccc(S(=O)(=O)c2cn(Cc3ccc(OC)cc3)c3ccc(F)cc3c2=O)cc1 | inactive: -5.09%
82 | CCOc1ccc(C(=O)N2CCN(CCc3ccccn3)CC2)cc1 | inactive: 5.44%
83 | Cc1nn(-c2ccc(N3CCCC3)nn2)c(C)c1CCC(=O)NCc1ccc(OC(C)C)cc1 | inactive: -12.3%
